Source: patent US20070059306A1 (TRUBION PHARMACEUTICALS, published 2007)

T1: CD37 (human, UniProt P11049 1-281)
T1 construct: whole, on cells; Endogenous CD37 on human cells; also called CD37 antigen; CD37 cell surface receptor
T1 sequence (looked up): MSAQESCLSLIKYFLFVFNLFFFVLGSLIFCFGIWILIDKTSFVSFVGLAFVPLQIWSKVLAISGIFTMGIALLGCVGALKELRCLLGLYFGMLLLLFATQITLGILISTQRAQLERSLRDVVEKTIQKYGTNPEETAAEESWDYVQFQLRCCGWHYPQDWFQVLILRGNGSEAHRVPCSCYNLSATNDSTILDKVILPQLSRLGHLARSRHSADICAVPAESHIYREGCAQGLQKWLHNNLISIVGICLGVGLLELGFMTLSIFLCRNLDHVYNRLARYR


Biological target: T1, CD37
Assay: binding to Ramos B cells

binding result | Binder
binds | Humanized TRU-016 construct no. 019041 (Fc fusion, 019006 with CDR-H3 JH4, 15aa gly4ser linker, SSC-P hinge) EIVLTQSPATLSLSPGERATLSCRASENVYSYLAWYQQKPGQAPRLLIYFAKTLAEGIPARFSGSGSGTDFTLTISSLEPEDFAVYYCQHHSDNPWTFGQGTKVEIKGGGGSGGGGSGGGGTGEVQLVQSGAEVKKPGESLKISCKGSGYSFTGYNMNWVRQMPGKGLEWMGNIDPYYGGTTYNRKFKGQVTISADKSISTAYLQWSSLKASDTAMYYCARSVGPFDYWGQGTLVTVSSDQ[human IgG1 Fc with changes not shown]
binds | Humanized TRU-016 construct no. 019044 (Fc fusion, 019006 with CDR-H3 JH5a, 15aa gly4ser linker, SSC-P hinge) EIVLTQSPATLSLSPGERATLSCRASENVYSYLAWYQQKPGQAPRLLIYFAKTLAEGIPARFSGSGSGTDFTLTISSLEPEDFAVYYCQHHSDNPWTFGQGTKVEIKGGGGSGGGGSGGGGTGEVQLVQSGAEVKKPGESLKISCKGSGYSFTGYNMNWVRQMPGKGLEWMGNIDPYYGGTTYNRKFKGQVTISADKSISTAYLQWSSLKASDTAMYYCARSVGPFDSWGQGTLVTVSSDQ[human IgG1 Fc with changes not shown]
